T1: recombinant human ENTPD2 (residues 29-462) (Homo sapiens, UniProt Q9Y5L3)
T1 construct: residues 29-462 of human or cyno ENTPD2; GP67 signal peptide (N); made in house; host or cells: High Five (Trichoplusia ni) insect cells, baculovirus
T1 sequence (Q9Y5L3 29-462): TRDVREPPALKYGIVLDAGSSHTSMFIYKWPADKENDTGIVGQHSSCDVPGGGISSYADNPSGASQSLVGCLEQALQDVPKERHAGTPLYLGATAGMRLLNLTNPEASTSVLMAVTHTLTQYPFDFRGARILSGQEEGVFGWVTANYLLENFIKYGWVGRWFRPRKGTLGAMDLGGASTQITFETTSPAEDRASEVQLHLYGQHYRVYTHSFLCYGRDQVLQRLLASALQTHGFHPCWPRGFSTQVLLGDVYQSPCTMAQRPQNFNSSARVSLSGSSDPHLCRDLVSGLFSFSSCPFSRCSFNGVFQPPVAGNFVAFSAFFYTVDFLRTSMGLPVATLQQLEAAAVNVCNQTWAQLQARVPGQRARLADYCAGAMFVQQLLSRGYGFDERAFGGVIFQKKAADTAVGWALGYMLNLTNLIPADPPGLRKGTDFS

T2: Human ENTPD1 (NP_001767) expressing NIH/3T3 cells (Homo sapiens, UniProt P49961)
T2 construct: expressed in transfected cells; host or cells: NIH/3T3 (retroviral transduction, FACS-sorted)
T2 sequence (P49961 1-510): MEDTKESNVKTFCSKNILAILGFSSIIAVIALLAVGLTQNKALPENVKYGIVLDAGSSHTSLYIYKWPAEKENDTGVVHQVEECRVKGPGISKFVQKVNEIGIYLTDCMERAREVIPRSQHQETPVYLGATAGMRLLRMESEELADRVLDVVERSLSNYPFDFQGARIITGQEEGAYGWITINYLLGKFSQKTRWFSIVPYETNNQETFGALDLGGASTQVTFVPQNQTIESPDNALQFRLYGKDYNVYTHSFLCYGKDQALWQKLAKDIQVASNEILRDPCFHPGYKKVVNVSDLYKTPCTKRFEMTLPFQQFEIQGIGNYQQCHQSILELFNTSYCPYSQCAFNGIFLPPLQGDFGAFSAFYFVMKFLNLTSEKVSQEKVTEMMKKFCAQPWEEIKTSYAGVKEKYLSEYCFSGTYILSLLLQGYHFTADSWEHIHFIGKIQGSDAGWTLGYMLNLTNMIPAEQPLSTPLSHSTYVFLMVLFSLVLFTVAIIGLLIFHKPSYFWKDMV


Assays:
[1] = target: T1, recombinant human ENTPD2 (residues 29-462); assay: Biochemical human ENTPD2 functional assay (Transcreener ADP2 TR-FRET)
[2] = target: T2, Human ENTPD1 (NP_001767) expressing NIH/3T3 cells; assay: Cross reactivity: FACS binding to human ENTPD1 expressing NIH/3T3 cells; details: 50 nM antibody
Method: (§1) FACS screening: Specific binding of candidate antibodies to endogenously expressed ENTPD2 was assessed by flow cytometry. Cells were rinsed thoroughly with 1× PBS and treated with Accutase (Millipore #SCR005) to lift from growth plates and resuspended at approximately 1×10^5 cells/90 μL in 1× FACS buffer (2% FBS +0.1% NaN3 in PBS). In a 96-well U-bottom plate, 10 μL of 10× antibody solution in FACS buffer was pre-seeded and 90 μL of cell suspension was added. Cell were incubated for 30 minutes at 4° C., washed 1× with cold PBS and resuspended in 100 μL of 1:500 secondary antibody 1× FACS buffer (Allophycocyanin conjugated F(ab′)2 goat anti-human IgG, Fcγ specific; Jackson Immunoresearch, Cat# 109-136-098). After additional incubation for 15 min at 4° C., cells were washed twice with PBS and resuspended in 100 μL of 1× FACS buffer with 4 μg/mL propidium iodide (Life Technologies, Cat# P3566). Geometric mean fluorescence intensity was calculated on live single cells using FlowJo software.
(§2) Cross reactivity Human ENTPD1 (NP_001767) expressing NIH/3T3 cells were generated using a retroviral transduction approach. 72hrs post transduction, engineered cells were stained with the anti-Human CD39/ENTPD1 APC-conjugated Antibody (R&D systems, Minneapolis, Minn.) and live cells that expressed human ENTPD1 were separated from the rest of the population via fluorescence activated cell sorting. Stable expression of ENTPD1 was periodically re-confirmed by FACS with the above described anti-Human CD39/ENTPD1 APC-conjugated Antibody (1:100).

H520 cells = assay: Cross reactivity: FACS binding to H520 cells (ENTPD3 and ENTPD8 expression); parameters: species or system human; details: 50 nM antibody
Method: as §1
H520 cells were identified as a cancer cell line with ENTPD3 (Ct 25) and ENTPD8 (Ct 26) expression by Taqman and were used for selectivity screening.

NIH/3T3 cells = assay: Cross reactivity: FACS binding to parental NIH/3T3 control cells; details: 50 nM antibody
Method: as §1, §2

Row | Apparent FACS binding at 50 nM, NIH/3T3 - ENTPD1 [2] | Molecule | inhibition of the catalytic activity of recombinant human ENTPD2 [1] | Apparent FACS binding at 50 nM, H520 Cells (H520 cells) | Apparent FACS binding at 50 nM, NIH/3T3 cells (NIH/3T3 cells)
1 |  | mAb19: anti-human ENTPD2 antibody; probably heavy chain SEQ ID NO: 252, light chain SEQ ID NO: 259 (antibody) heavy: EVQLQQFGAELVKPGTSVKISCKASGYTFTDYNMDWVKQSHGKSLEWIGDINPNYDITTYNQRFKGKATLTVDKSSSTAYMELRSLTSEDTAVYYCARRGFFPYYGNSYYYFDVWGAGTTVTVSSASTKGPSVFPLAPSSKSTSGGTAALGCLVKDYFPEPVTVSWNSGALTSGVHTFPAVLQSSGLYSLSSVVTVPSSSLGTQTYICNVNHKPSNTKVDKRV[left out - human IgG1 Fc] light: QIVLTQSPTIMSASLGEEITLTCSASSSVSYMHWYQQKSGTSPKLLIYSTSNLASGVPSRFSGSGSGTFYSLTISSVEAEDAADYYCHQWSNYPWTFGGGTKLEIKRTVAAPSVFIFPPSDEQLKSGTASVVCLLNNFYPREAKVQWKVDNALQSGNSQESVTEQDSKDSTYSLSSTLTLSKADYEKHKVYACEVTHQGLSSPVTKSFNRGEC | potently inhibit |  | 
2 |  | mAb21: anti-human ENTPD2 antibody; probably heavy chain SEQ ID NO: 283, light chain SEQ ID NO: 289 (antibody) heavy: EVQLQQSGPELVKPGASVKISCKTSGYTFTEYTMHWVKQSHGKSLEWIGGINPNNGITTYNQKFKGKATLTVDKSSSTAYMDLRSLTSEGSAVYYCARRGFPIYYYGTSLYYFDYWGQGTTLTVSSASTKGPSVFPLAPSSKSTSGGTAALGCLVKDYFPEPVTVSWNSGALTSGVHTFPAVLQSSGLYSLSSVVTVPSSSLGTQTYICNVNHKPSNTKVDKRV[left out - human IgG1 Fc] light: QIVLTQSPAIMSASLGEEITLTCSASSSVSYMHWYQQRSGTSPKLLIYTTSNLASGVPSRFSGSGSGTFYSLTISSVEAEDAADYYCHQWSSYPWTFGGGTKLEIKRTVAAPSVFIFPPSDEQLKSGTASVVCLLNNFYPREAKVQWKVDNALQSGNSQESVTEQDSKDSTYSLSSTLTLSKADYEKHKVYACEVTHQGLSSPVTKSFNRGEC | potently inhibit |  | 
3 | No binding | ANTI-HUMAN ENTPD2 MAB2 (antibody) heavy: QVQLVQSGAEVVKPGASVKISCKASGYTFTDYNMDWVKQAPGQRLEWIGDINPKYDISTYNQQFKGKATITVDKSASTAYMELSSLRSEDTAVYYCARRGFFLYYGINYYYFDVWGQGTLVTVSSASTKGPSVFPLAPSSKSTSGGTAALGCLVKDYFPEPVTVSWNSGALTSGVHTFPAVLQSSGLYSLSSVVTVPSSSLGTQTYICNVNHKPSNTKVDKRV[left out - human IgG1 Fc] light: EIVLTQSPATLSASPGERITLSCSASSSVSYIHWYQQKPGQAPRLLIYSTSNLASGIPARFSGSGSGTFYTLTISSVEPEDAAVYYCHQWSSYPWTFGGGTKLEIKRTVAAPSVFIFPPSDEQLKSGTASVVCLLNNFYPREAKVQWKVDNALQSGNSQESVTEQDSKDSTYSLSSTLTLSKADYEKHKVYACEVTHQGLSSPVTKSFNRGEC |  | No binding | No binding

From patent US20220340685A1, “COMBINATION THERAPY WITH ENTPD2 AND CD73 ANTIBODIES” (Novartis AG, priority 2019, published 2022)
